Experimental data from PMC4336329 (PLoS ONE, 2015).
Screen size: about 310,000 compounds; about 2,200 (0.71%) showed an effect of 50% or more. Effects have a minus sign here. The list shows a part of the results.

Each compound was assayed against human ether-à-go-go-related gene (hERG) potassium channel (human, UniProt Q12809) (assay: primary screen, population patch clamp on CHO cells stably expressing hERG).
Sequence of human ether-à-go-go-related gene (hERG) potassium channel (Q12809 whole entry, looked up): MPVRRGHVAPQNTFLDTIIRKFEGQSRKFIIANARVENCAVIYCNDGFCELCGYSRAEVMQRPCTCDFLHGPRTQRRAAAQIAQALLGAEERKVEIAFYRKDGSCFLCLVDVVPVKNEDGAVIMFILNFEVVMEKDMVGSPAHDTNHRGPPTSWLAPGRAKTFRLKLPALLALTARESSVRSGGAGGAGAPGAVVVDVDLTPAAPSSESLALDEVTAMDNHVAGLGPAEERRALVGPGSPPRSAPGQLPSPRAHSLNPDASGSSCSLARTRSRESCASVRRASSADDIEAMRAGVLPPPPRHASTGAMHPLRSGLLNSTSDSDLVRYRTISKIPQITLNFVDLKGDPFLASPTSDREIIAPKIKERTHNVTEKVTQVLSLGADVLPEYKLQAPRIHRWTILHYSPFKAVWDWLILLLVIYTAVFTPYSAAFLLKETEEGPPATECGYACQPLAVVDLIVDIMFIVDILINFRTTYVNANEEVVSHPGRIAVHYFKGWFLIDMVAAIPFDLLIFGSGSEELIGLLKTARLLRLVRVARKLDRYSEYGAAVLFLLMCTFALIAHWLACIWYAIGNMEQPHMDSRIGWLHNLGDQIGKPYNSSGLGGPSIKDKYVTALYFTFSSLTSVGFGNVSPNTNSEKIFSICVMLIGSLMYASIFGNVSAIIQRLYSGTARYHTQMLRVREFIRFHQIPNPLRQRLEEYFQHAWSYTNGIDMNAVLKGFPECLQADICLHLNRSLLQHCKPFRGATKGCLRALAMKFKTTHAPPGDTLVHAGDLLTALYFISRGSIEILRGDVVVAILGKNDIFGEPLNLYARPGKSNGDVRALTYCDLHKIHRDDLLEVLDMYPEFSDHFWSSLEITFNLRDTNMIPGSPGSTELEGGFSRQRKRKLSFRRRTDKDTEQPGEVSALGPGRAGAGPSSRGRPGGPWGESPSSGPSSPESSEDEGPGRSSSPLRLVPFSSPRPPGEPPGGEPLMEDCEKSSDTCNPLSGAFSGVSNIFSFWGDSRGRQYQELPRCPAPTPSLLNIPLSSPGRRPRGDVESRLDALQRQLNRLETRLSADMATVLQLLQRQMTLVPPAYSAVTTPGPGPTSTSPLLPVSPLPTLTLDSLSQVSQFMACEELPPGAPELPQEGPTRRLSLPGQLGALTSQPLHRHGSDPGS

Compound | hERG current change (%, negative = inhibition) at 1uM [%]
O=C(NCc1ccc(Cl)s1)c1cc(COc2c(F)cccc2F)on1 | 2.81
Cc1ccc2c(c1)c1ncnc(N3CCN(c4ccccc4)CC3)c1n2C | 12.7
CCCCn1nc2cc(C(=O)NCc3ccc(OC)cc3)ccc2c1OCC | 17.8
C=CCc1cccc(CNc2nc3ccccc3n2C)c1O | 11.4
CC(=O)NC(=S)Nc1cccc([N+](=O)[O-])c1 | -2.63
O=C(CC1CCCCC1)NCc1ccccn1 | 0.656
COc1cccc(N(CC(=O)NCCSCc2ccc(Cl)cc2)S(C)(=O)=O)c1 | 9.11
COCCN(CCOC)S(=O)(=O)c1ccc(C(=O)Nc2nnc(COC)o2)cc1 | 15.1
Cc1cccc(NC(=O)CCCn2cc([N+](=O)[O-])cn2)n1 | 4.87
Cl.N=c1sccn1CC(=O)Nc1cccc2ccccc12 | 1.19
COc1cc([C@H]2c3c(cc(OC)c(O)c3OC)C[C@@H](CO)[C@@H]2CO[C@@H]2O[C@H](CO)[C@@H](O)[C@H](O)[C@H]2O)cc(OC)c1O | 10.8
Cc1cc(NC(=O)CSc2nc3c(C)ccc(C)c3cc2C#N)no1 | 13.3
Cc1ccc(NC(=O)C(=O)NCC2CCCN2S(=O)(=O)c2cccs2)c(C)c1 (stereo not shown) | 17.9
CC(C)(C)NC(=O)CCc1nnc(Cc2c[nH]c3ccccc23)o1 | 9.37
COc1ccc(S(=O)(=O)N2CCCC(C(=O)NCc3cccnc3)C2)cc1 (stereo not shown) | -2.44
O=C1CN(C(=O)COC(=O)C2CCN(S(=O)(=O)c3ccccc3C(F)(F)F)CC2)c2ccccc2N1 | 10.1
CCN(C(=O)CSc1nnnn1-c1ccccc1)C1CCS(=O)(=O)C1 (stereo not shown) | 2.58
Cc1ccccc1OCCC(=O)N(CC(C)C)c1c(N)n(Cc2ccccc2)c(=O)[nH]c1=O | -15.3
CCN1CCN(c2nc(C)c3c(n2)CC(C)CC3=O)CC1 (stereo not shown) | 15.6
O=C(NCc1ccco1)c1cc([N+](=O)[O-])ccc1N1CCOCC1 | 2.91
CCc1cc2ccc(C)cc2nc1SCC(=O)Nc1c[nH]c(=O)[nH]c1=O | 8.35
COc1ccc(CCNC(=O)CCNC(=O)c2ccco2)cc1 | -4.63

Compound | hERG current change (%, negative = inhibition) at 1uM [%]
C/C(CC(=O)NC12CC3CC(CC(C3)C1)C2)=N\NC(=O)c1cnccn1 | 11.5
COS(=O)(=O)[O-].Cn1c(-c2ccc3ccccc3n2)[n+](C)c2ccccc21 | 6.24
CC1(c2nnc(Cc3ccccc3)o2)CC(c2ccc(Br)cc2)=NO1 (stereo not shown) | 7.13
CC(C)NS(=O)(=O)c1ccc(OCC(=O)N(C)Cc2ccccc2)cc1 | -16.1
CCOc1ccc(NC(=O)CN(C)C(=O)C(C)N2C(=O)c3ccccc3C2=O)cc1OCC (stereo not shown) | 2.6
CC(C)NC(=O)NC(=O)CN1C(=O)NC(Cc2c[nH]c3ccccc23)C1=O (stereo not shown) | 17
NC(=O)[C@@H]1CCCNc2c(F)cc([N+](=O)[O-])cc2C(=O)N[C@@H](CO)C(=O)N[C@@H](Cc2ccc(O)cc2)C(=O)N1 | -2.24
COc1ccc(OCC(=O)NCCC2=CCCCC2)c([N+](=O)[O-])c1 | 2.46
CC(C)Cc1nc(N2CCOCC2)c(C#N)c2c1CCC2 | 9.58
CN(C)c1ccc(/C=C/c2nnnn2-c2ccccc2)cc1 | 5.52
O=C1c2ccccc2NC(c2ccccc2)N1CCCN1CCOCC1 (stereo not shown) | 9.98
C=CCn1c(O)c(N=NC(=O)c2cccnc2)c2cc(Br)ccc21 | -3.56
CCn1c(SCC(=O)Nc2ccc(C)cc2)nc2nc3c(cc2c1=O)CCCC3 | -1.33
CCOC(=O)c1sc(/N=C/N(C)C)c(C(=O)OCC)c1C | 1.61
COc1ccccc1/C=N/NC(=O)c1ccccc1Cl | 5.78
Cc1cccc(C(=O)NCC(=O)OCC(=O)NCCNC(=O)COC(=O)CNC(=O)c2cccc(C)c2)c1 | 21.2
CCOC(=O)C1=C(C)NC(SCC(N)=O)=C(C#N)C1c1ccccc1 (stereo not shown) | 4.67
O=C(c1ccc([N+](=O)[O-])cc1)N1CCC(Cc2ccccc2)CC1 | -25.2
Cc1cccc(CCNC(=O)CCCOc2cc(=O)n(C)c3ccccc23)c1 | -7.98
COc1ccc(S(=O)(=O)N2CCCCC2)cc1NC(=O)CN1C(=O)NC(C)(C2CC2)C1=O (stereo not shown) | 1.85
O=C1C(Cl)=C(NCCN2CCOCC2)C(=O)c2ccccc21 | 10.5
COc1ccc(Br)cc1-c1nc(C)c(C(C)=O)n1O | 12.8

Compound | hERG current change (%, negative = inhibition) at 1uM [%]
Nn1c(SCC(=O)NC(=O)NCc2ccccc2)nnc1C1CC1 | 12.5
Cc1nn(CCCC(=O)N2CCN(c3ccc(F)cc3)CC2)c(C)c1[N+](=O)[O-] | -9.6
O=C(CSc1nc2c(cnn2-c2ccc(F)cc2)c(=O)[nH]1)N1CCCc2ccccc21 | 10.2
CC(OC(=O)Cn1cnc2c1c(=O)n(C)c(=O)n2C)C(=O)N(C)c1ccccc1 (stereo not shown) | 15.7
O=[N+]([O-])c1ccc(N2CCN(c3ccccn3)CC2)c(Cl)c1 | 3.33
COc1ccc(F)cc1S(=O)(=O)NCC(c1ccco1)N1CCc2ccccc2C1 (stereo not shown) | -4
O=C(Nc1cccc(S(=O)(=O)c2cccc(NC(=O)c3ccco3)c2)c1)c1ccco1 | -3.4
CCCCNC(=O)CCn1c(=O)c2ccccc2n(CC(=O)N2CC(C)CC(C)C2)c1=O (stereo not shown) | 3.49
CCOc1ccc(C(=O)Nc2c3c(nn2-c2ccccc2)CS(=O)(=O)C3)cc1 | 12.9
CCc1noc(C)c1C(=O)NNC(=O)c1cc(OC)c(OC)c(OC)c1 | -1.71
CC(Sc1ccccc1)C(=O)NN=C1CCCCCC1 (stereo not shown) | 8.72
Cn1nc(C(=O)OCC(=O)N2CCc3ccccc32)c2ccccc2c1=O | 9.88
COc1ccc(C=O)cc1Cn1ccnc1C.Cl | 15.4
CC(=O)NC1=NN(C(C)=O)C(c2cccc([N+](=O)[O-])c2)S1 (stereo not shown) | 11.7
CCS(=O)(=O)Nc1cccc(C2=NN(S(=O)(=O)c3ccc(C)cc3)C(c3cccs3)C2)c1 (stereo not shown) | 4.61
CC(=O)c1ccc(NC(=O)N[C@@H](CC(C)C)C(=O)O)cc1 | -1.32
CCOC(=O)c1c(C)[nH]c(C)c1C(=O)COC(=O)c1ccc(Cl)c(S(=O)(=O)NCc2ccccc2)c1 | 10.1
Cc1ccc(CNC(=O)C2CC(c3ccccc3C(F)(F)F)=NO2)cc1 (stereo not shown) | 3.89
O=S(=O)(c1ccccc1)n1c(C(O)c2ccccn2)cc2ccccc21 (stereo not shown) | 6.94
CCc1ccc(-c2cc(C)no2)cc1S(=O)(=O)N1CCC(C)CC1 | 8.92
O=C(N[C@@H](Cc1ccccc1)C(=O)NCc1ccc(F)cc1)C1CCNCC1 | 25.4
CCOC(=O)CC(=O)Nc1ccc(C(=O)OCC)cc1 | -6.42

Compound | hERG current change (%, negative = inhibition) at 1uM [%]
COc1cc(NC(=S)NCCC(c2ccccc2)c2ccccc2)c(OC)cc1Cl | 6.29
COc1ccccc1-n1c(SCC(=O)NCC2CCCO2)nc2c([nH]c3ccccc32)c1=O (stereo not shown) | 12.8
Cc1ccc(-c2cnc(N)n2C)cc1C | 15.4
CC[n+]1c(C)sc2sc3ccccc3c21.[I-] | 8.6
COc1ccc(OC)c(C(=O)NC(CC(N)=O)c2ccc(NCCN3CCCCC3)c([N+](=O)[O-])c2)c1 (stereo not shown) | 2.05
O=S(=O)(N=S(N1CCCCC1)N1CCCCC1)c1ccccc1 | -3.22
CCOC(=O)C(OC(=O)c1sc(=S)n(C)c1C)C(C)=O (stereo not shown) | 18
COc1ccc(S(=O)(=O)NC2CC(C)(C)NC(C)(C)C2)cc1 | 7.99
COc1ccc(C(=O)NCc2ccc(-c3nc4ccccc4s3)cc2)cc1OC | 4.21
COc1ccc(-c2c[n+]3c(n2-c2ccccc2)SCC3)cc1OC.[Br-] | 10.6
Cc1ccc(CNC(=O)CCCn2c(=O)[nH]c3ccccc3c2=O)cc1 | 12.3
Cc1ccc(C(=O)c2sc3c(c2N)c(=O)[nH]c(=O)n3CCc2ccccc2)cc1 | 10
CCOC(=O)c1cc2c(=O)n3ccccc3nc2n(C(C)C)c1=NC(=O)c1c(-c2c(F)cccc2Cl)noc1C | 7.84
O=C(C1=C[C@H](c2csc3ccccc23)C[C@H](OCCCCO)O1)N1CCOCC1 | 7.87
CCc1nnc(NC(=O)c2cc(S(=O)(=O)N(C)c3ccc(OC)cc3)ccc2Cl)s1 | 7.12
Cc1c(F)cccc1NC(=O)CCC(=O)O | 9.98
CC(NC(=O)C1CCN(S(=O)(=O)N2CCC3(CC2)OCCO3)CC1)c1ccccc1 (stereo not shown) | 9.42
CCCCN(CCCNC(=O)C1CCN(C(=O)c2cc3sccc3n2C)CC1)Cc1ccccc1 | -31
COc1c(O)c(O)c2oc(-c3ccccc3)cc(=O)c2c1OC | -1.79
